Reference: the supplement of paper PMC11417369
± gives the standard deviation of the averaged measurements. Some of the results follow.

Test system: PfAP2-EXP AP2 domain (GST-tagged)
Assay: gcPBM binding intensity (ln(normalized median fluorescence intensity)); higher = stronger DNA binding
Summary of the method: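 The binding buffer was 1× PBS containing 1% milk, 0.2 mg/ml BSA, 0.5% salmon testes DNA and 0.03% Triton X-100. In it, GST-tagged P. falciparum DNA-binding domains expressed in E. coli were applied for 1 h to an Agilent 4 × 180k array of primer-extended double-stranded 36-bp intergenic genomic probes plus negative controls. Binding intensity, read with Alexa488 anti-GST antibody and a 488 nm scan, is the highest Masliner-normalised natural-log median intensity across replicate spots of either probe orientation.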

Sequence	gcPBM binding intensity (ln)
AAAGGGGAGATATGAACACACAAAAAAAAAATATAT [CACACA_site7378]	8.82 ± 0.59
AAATAAAATTTTTGTTGTACTTATTTTTAGTATACT [XGTACX_site4254]	8.52 ± 0.42
AATATTTACAGACATGCGCACACATAAATAAATAAT [CACACA_site8760]	8.94 ± 0.37
AGAAAGGATATAAGCGTAGCTATATCATAAAAAATG [GTGCAC_negctrl_site332]	8.49 ± 0.37
TATATATATTTTAAATGTACTTATAAATTACCACTT [XGTACX_site5673]	8.44 ± 0.25
GTATATATATATTTATGTACTTACCTACATAATTAT [XGTACX_site4435]	8.84 ± 0.24
TAAATAAATTTGCACTGTACGCAAAAAAAAAAAAGA [XGTACX_site8781]	8.64 ± 0.56
CCTTTTAAGAGTTGCACACGTACAAAAAAAAAAAAA [CACACA_site3492]	8.6 ± 0.45
ACACATAAATGTATATATATATAAATATATGTATGT [CACACA_negctrl_site1532]	8.41 ± 0.31
AATAATAAAAAATACGCACACATGTAAACGTATGTT [CACACA_site3336]	8.44 ± 0.3
GGCGATATAGAACTACGTACTTATACAAATTATAAT [XGTACX_site2307]	8.68 ± 0.4
ATAGCAATAATGGAAAGTACAAAAAAACTTGTTATA [XGTACX_site8518]	8.62 ± 0.34
TATATATATATATATAAGCTTATAATAAAACAAAAA [XGTACX_negctrl_site568]	10.1 ± 0.32
TGTATTAATAAAAATACACACATCATATTATATAAA [CACACA_site3534]	8.22 ± 0.33
AATCCTTACAGACACACACACACGAATAAATAAAAA [CACACA_site480]	8.66 ± 0.59
TTATAATTTTTGAGCACACACAAGCATATATATATA [CACACA_site1798]	9.92 ± 0.34
TATGTATTATCAAAAAGTACTAAAAAAAAATAATAA [XGTACX_site4703]	8.73 ± 0.47
TATATATGTATATGTGTGCACCTTATTTCTTTTATT [GTGCAC_site9513]	9.4 ± 0.38
ATAAATGTTATGCATACACACTTTATACCTATTTAA [CACACA_site5967]	8.54 ± 0.42
ACAGTATTTCGAGATGGTACACATATATATATATAT [XGTACX_site6880]	10 ± 0.32
AAAAAAAAAAAAAAAAGGGGGGGAGGGATTGAAAAA [CACACA_negctrl_site193]	10.22 ± 0.042
AATGAGGATATATACACACATACATTAAAAAAATAT [CACACA_site1849]	8.57 ± 0.5
ATGAGTTACATGGGAAAAATATATATATATATATAT [CACACA_negctrl_site579]	10.1 ± 0.31
TTGTTGTATTATTTATGTACATATGTATATGTATAT [XGTACX_site1315]	8.83 ± 0.23
